Results: the supplement of paper PMC12423691
This is one part of the list. Binding of human transcription factors and regulators to the viral nucleoprotein by AlphaScreen, crude cell-free proteins, amounts not normalised, one pass. Fold of the Venus control; higher = more signal. No active / inactive call. Single-pass screen; sequences are the whole Swiss-Prot entries looked up by name.

B1: ZNF691, Q5VV52 (protein)
chain: MSLCSPTHSAEMSLFLQGPEEMLPLSSEGSEMGSEKEQSPEPHLPEEGEGGKPWRVDDSEGSWIPPGEKEHGQESLSDELQETHPKKPWQKVTVRARELGDPIAHPRHEADEKPFICAQCGKTFNNTSNLRTHQRIHTGEKPYKCSECGKSFSRSSNRIRHERIHLEEKHYKCPKCQESFRRRSDLTTHQQDHLGKRPYRCDICGKSFSQSATLAVHHRTHLEPAPYICCECGKSFSNSSSFGVHHRTHTGERPYECTECGRTFSDISNFGAHQRTHRGEKPYRCTVCGKHFSRSSNLIRHQKTHLGEQAGKDSS
B2: GLI4, P10075 (protein)
chain: MAALGDIQESPSVPSPVSLSSPGTPGTQHHEPQLHLHGHQHGSPGSSPKVLSQPSDLDLQDVEEVEIGRDTFWPDSEPKPEQAPRSPGSQAPDEGAGGALRSLLRSLPRRARCSAGFGPESSAERPAGQPPGAVPCAQPRGAWRVTLVQQAAAGPEGAPERAAELGVNFGRSRQGSARGAKPHRCEACGKSFKYNSLLLKHQRIHTGEKPYACHECGKRFRGWSGFIQHHRIHTGEKPYECGQCGRAFSHSSHFTQHLRIHNGEKPYKCGECGQAFSQSSNLVRHQRLHTGEKPYACSQCGKAFIWSSVLIEHQRIHTGEKPYECSDCGKAFRGRSHFFRHLRTHTGEKPFACGACGKAFGQSSQLIQHQRVHYRE
B3: NPAS1, Q99742 (protein)
chain: MAAPYPGSGGGSEVKCVGGRGASVPWDFLPGLMVKAPSGPCLQAQRKEKSRNAARSRRGKENLEFFELAKLLPLPGAISSQLDKASIVRLSVTYLRLRRFAALGAPPWGLRAAGPPAGLAPGRRGPAALVSEVFEQHLGGHILQSLDGFVFALNQEGKFLYISETVSIYLGLSQVEMTGSSVFDYIHPGDHSEVLEQLGLRTPTPGPPTPPSVSSSSSSSSSLADTPEIEASLTKVPPSSLVQERSFFVRMKSTLTKRGLHVKASGYKVIHVTGRLRAHALGLVALGHTLPPAPLAELPLHGHMIVFRLSLGLTILACESRVSDHMDLGPSELVGRSCYQFVHGQDATRIRQSHVDLLDKGQVMTGYYRWLQRAGGFVWLQSVATVAGSGKSPGEHHVLWVSHVLSQAEGGQTPLDAFQLPASVACEEASSPGPEPTEPEPPTEGKQAAPAENEAPQTQGKRIKVEPGPRETKGSEDSGDEDPSSHPATPRPEFTSVIRAGVLKQDPVRPWGLAPPGDPPPTLLHAGFLPPVVRGLCTPGTIRYGPAELGLVYPHLQRLGPGPALPEAFYPPLGLPYPGPAGTRLPRKGD

The binders below were run against nucleoprotein N of Crimean-Congo hemorrhagic fever virus (assay: AlphaScreen luminescence signal relative to Venus negative control (fold); higher = stronger binding to CCHFV N).
Experimental: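 AlphaScreen binding of cell-free made, FLAG-GST-tagged human transcription factors and regulators (crude translation products) to biotinylated N protein; signal as fold of the FLAG-GST-Venus control. One pass.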
With B1 the AlphaScreen luminescence signal was 1.49.
In the case of B2, the AlphaScreen luminescence signal is reported as 1.4.
In the case of B3, the AlphaScreen luminescence signal is reported as 3.12.
